Experimental data: PubChem BioAssay AID1347417 (National Center for Advancing Translational Sciences (NCATS), 2020)
The campaign covered roughly 120,000 compounds. About 5,300 (4.4%) were called active. The shares of active, inactive and inconclusive entries below differ from those in the screen. Calls follow the shape of the dose curve; as a rule, active = well fitted inhibition curve with a large enough effect; inconclusive = small, poorly fitted or top-dose-only effect; inactive = no such curve, though single readings can be large or run the other way. Where the call is inconclusive, the potency comes from a doubtful curve fit.

Test: qHTS Primary assay for Inhibitors of Plasmodium falciparum Dd2 growth in vitro; also: nearly all actives have a fitted effect of over 65% in size
Conditions: P. falciparum Dd2 growth, SYBR Green, 72 h; series mostly up to 28.9 µM
How it was run: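 Readout: SYBR Green fluorescence, 485 nm excitation, 535 nm emission, after ~16 h lysis at 37C. Before that, Dd2-infected red cells (2.5% hematocrit) grew 72 h with compound, 29 uM top final concentration.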
Potency is read from the fitted curve at half-maximal effect; tags tell the direction and shape of the fitted curve.

| SMILES | Potency |
| --- | --- |
| COc1ccccc1C(=O)N1CCCC2(C1)Nc1cccnc1NC2=NCc1ccccc1 (centres undefined) | inconclusive: 3.98 µM [inhibitor, single point] |
| Cc1nn(C)cc1CN1CCC(O)(c2ccccc2)[C@H](N2CCCC2)C1 (some centres undefined) | inconclusive: 0.794 µM [inhibitor, full curve, poor fit] |
| CCCn1c(C)cnc1C1CCN(S(=O)(=O)c2cc(OC)ccc2OC)C1 (centres undefined) | active: 3.55 µM |
| O=C(NCC1CCN(c2cc(-c3ccccc3)[nH]n2)CC1)c1ccc[nH]1 | inactive |
| COc1ccccc1-c1ccc2ncc(Nc3ccc(CN4CCN(C)CC4)cc3)n2n1 | inconclusive: 2.51 µM [inhibitor, partial curve, poor fit] |
| CC(C)[C@@H](C(N)=O)N1CC[C@H]2CN(C(=O)Nc3ccccc3)CC[C@H]2CC1=O | inactive |
| c1cncc(CNc2cc(-c3cnc4ccccc4n3)c3cc[nH]c3n2)c1 | active: 3.98 µM |
| CN1C[C@@H](NC(=O)c2ccc(-c3ccccc3)cc2)C[C@H]1c1nc(-c2ccncc2)no1 | active: 11.2 µM |
| Cc1cc(N2CCC(C)CC2)nc2ccc(NC(=O)CCC(=O)N3CCN(c4cccc(C(F)(F)F)c4)CC3)cc12 | inconclusive: 11.2 µM [inhibitor, single point] |
| CO[C@@H]1COCC[C@H]1NC1CCN(c2ncc3ccc(F)cc3n2)CC1 | inconclusive: 10 µM [inhibitor, partial curve, poor fit] |
| Cc1cccc(OCC(=O)N2[C@H]3CC[C@@H]2c2cnc(-c4ccc(F)cc4)nc2C3)c1 | inconclusive: 10 µM [inhibitor, single point] |
| COc1cccc(NC(=O)c2cn(C3CCCCC3)c(=O)c3c2c2ccccc2n3C)c1 | inconclusive: 17.8 µM [inhibitor, single point] |
| CCN1C(=O)Cc2cc(C(=O)NCCC(C)C)ccc21 | inactive |
| CC1CCc2nc3ncn(CC(=O)Nc4cccc(C#N)c4)c(=O)c3cc2C1 (centres undefined) | inactive |
| COC(=O)c1ccc(Cn2c(SCc3cccc(C)c3)nc3ccncc32)cc1 | inconclusive: 10 µM [inhibitor, single point] |
| CC(=O)Nc1ccc(CC(=O)NCCc2noc(C3CC3)n2)cc1 | inactive |
| Cc1ccc(NC(=O)CC2Nc3cccc4cccc(c34)NC2=O)cc1 (centres undefined) | inconclusive: 10 µM [inhibitor, single point] |
| COc1ccc(N(Cc2ccccc2)C(=O)c2nc(SC)ncc2Cl)cc1 | inconclusive: 8.91 µM [inhibitor, single point] |
| CC1=C(C(=O)OC(C)C)C(c2ccccc2Cl)N2C(CC(=O)NCC3CC3)=CSC2=N1 (centres undefined) | inconclusive: 2.24 µM [inhibitor, single point] |
